PMC4279165
Results are given in words; binding and its absence hold for the method and conditions named. Some entries that bind do so weakly or less than the wild type.

By UniProt entry, the sequences of proteins in these tests, tags left out. Where a name states a change or a piece, a line headed by the entry shows the natural chain unless it says otherwise. Chains listed by the source or under a name are the forms on record and can include a tag or linker.
UniProt P0A6F5: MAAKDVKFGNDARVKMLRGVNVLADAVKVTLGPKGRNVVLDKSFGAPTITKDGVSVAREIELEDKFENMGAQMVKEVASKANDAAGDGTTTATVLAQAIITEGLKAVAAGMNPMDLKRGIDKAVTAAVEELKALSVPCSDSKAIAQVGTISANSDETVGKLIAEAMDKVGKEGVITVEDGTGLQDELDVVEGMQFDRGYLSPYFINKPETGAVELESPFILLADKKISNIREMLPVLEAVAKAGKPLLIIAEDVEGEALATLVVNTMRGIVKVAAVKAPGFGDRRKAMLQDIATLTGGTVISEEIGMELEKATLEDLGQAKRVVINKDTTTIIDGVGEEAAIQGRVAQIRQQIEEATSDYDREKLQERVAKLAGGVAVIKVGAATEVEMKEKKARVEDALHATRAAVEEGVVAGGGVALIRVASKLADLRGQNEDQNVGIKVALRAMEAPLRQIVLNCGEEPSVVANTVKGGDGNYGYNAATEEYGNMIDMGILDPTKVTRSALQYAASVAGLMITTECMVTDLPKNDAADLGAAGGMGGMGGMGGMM
frataxin clinical variant FXN-p.Ile154Phe, conserved C-terminal domain (amino acids 91-210) (Q16595, form named): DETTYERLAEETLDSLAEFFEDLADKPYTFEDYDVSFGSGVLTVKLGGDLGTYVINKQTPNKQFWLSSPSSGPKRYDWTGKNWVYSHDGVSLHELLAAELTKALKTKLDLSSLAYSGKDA
frataxin clinical variant FXN-p.Asp122Tyr, conserved C-terminal domain (amino acids 91-210) (Q16595, form named): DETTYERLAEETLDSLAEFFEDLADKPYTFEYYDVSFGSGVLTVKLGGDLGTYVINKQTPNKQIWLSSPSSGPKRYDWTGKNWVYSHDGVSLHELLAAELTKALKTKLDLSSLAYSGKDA

What was measured:
[1] = target: GroEL chaperonin, high-affinity nucleotide-free form, immobilised on NHS-Sepharose Fast Flow beads (UniProt P0A6F5); assay: condition: only at 37 °C (2 µM frataxin, 2 µM immobilized GroEL oligomer); solid phase GroEL partitioning assay (depletion of soluble protein by GroEL beads, UV absorbance Abs 280-Abs 350 nm or SDS-PAGE); GroEL immobilised on Sepharose beads, estimated 2 µM oligomer; 2 µM frataxin in solution; 37 °C; buffer A (50 mM Tris, 50 mM KCl, 5 mM MgCl2, 0.5 mM EDTA, 1 mM DTT, pH 7.5) with 1 M urea; constant mixing; both purified
[2] = target: GroEL chaperonin, high-affinity nucleotide-free form, immobilised on NHS-Sepharose Fast Flow beads (UniProt P0A6F5); assay: condition: only at 25 °C (2 µM frataxin, 2 µM immobilized GroEL oligomer); solid phase GroEL partitioning assay (depletion of soluble protein by GroEL beads, UV absorbance Abs 280-Abs 350 nm or SDS-PAGE); GroEL immobilised on Sepharose beads, estimated 2 µM oligomer; 2 µM frataxin in solution; 25 °C; buffer A (50 mM Tris, 50 mM KCl, 5 mM MgCl2, 0.5 mM EDTA, 1 mM DTT, pH 7.5) with 1 M urea; constant mixing; both purified
[3] = target: GroEL chaperonin, high-affinity nucleotide-free form, immobilised on NHS-Sepharose Fast Flow beads (UniProt P0A6F5); assay: solid phase GroEL partitioning assay (depletion of soluble protein by GroEL beads, UV absorbance Abs 280-Abs 350 nm or SDS-PAGE); GroEL immobilised on Sepharose beads, estimated 2 µM oligomer; 2 µM frataxin in solution; 45 °C; buffer A (50 mM Tris, 50 mM KCl, 5 mM MgCl2, 0.5 mM EDTA, 1 mM DTT, pH 7.5) with 1 M urea; constant mixing; both purified
[4] = target: GroEL chaperonin, high-affinity nucleotide-free form, immobilised on NHS-Sepharose Fast Flow beads (UniProt P0A6F5); assay: solid phase GroEL partitioning assay (depletion of soluble protein by GroEL beads, UV absorbance); 2 µM GroEL beads, 2 µM frataxin mutant, 45 °C, 1 M urea, with 4 M glycerol, 60 min; both purified
[5] = target: GroEL chaperonin, high-affinity nucleotide-free form, immobilised on NHS-Sepharose Fast Flow beads (UniProt P0A6F5); assay: solid phase GroEL partitioning assay (depletion of soluble protein by GroEL beads, UV absorbance); 2 µM GroEL beads, 2 µM frataxin mutant, 45 °C, 1 M urea, with 1 M TMAO, 60 min; both purified

| Substance | binding [1] | binding [2] | binding [3] | binding [4] | binding [5] |
| --- | --- | --- | --- | --- | --- |
| frataxin clinical variant FXN-p.Ile154Phe, conserved C-terminal domain (amino acids 91-210) (from UniProt Q16595 91-210) (domain or fragment) | no binding | no binding | binds | – | – |
| frataxin clinical variant FXN-p.Asp122Tyr, conserved C-terminal domain (amino acids 91-210) (from UniProt Q16595 91-210) (domain or fragment) | no binding | no binding | binds | no binding (condition: with 4 M glycerol) | no binding (condition: with 1 M TMAO) |
